Drawing on the supplement of paper PMC11880418, this text covers ALDHbr for eleven compounds.

Where a name gives a salt, the structure may show the parent alone. Some of the results follow. The data scatter; read single values as rough.
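Further: High-content imaging of ALDEFLUOR-stained cells with Hoechst-labelled nuclei in 384-well plates, triplicate wells, scored as Z-score against 0.1% DMSO vehicle, negative meaning fewer ALDHbr cells.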

This assay deals with T84. Nature of the assay: ALDHbr (CSC) cell proportion score relative to DMSO vehicle (ratio to DMSO); breast (SUM159) / gastric (MKN45) / pancreatic (PANC1) / colon cancer lines; ALDHbr cells have high ALDH activity and are rich in cancer stem cells (CSC); higher = more CSC (ALDHbr) cells remaining. To be noted: 10 µM; 72 h.
On to `Cc1cc(-n2c(=O)[nH]c(=O)n(C)c2=O)ccc1Oc1ccc(SC(F)(F)F)cc1` [Toltrazuril], for which the ALDHbr was determined as 1.09.

Regarding `NCCCC(O)(P(=O)(O)O)P(=O)(O)O` [Alendronate sodium], the ALDHbr was 1.08.

For the compound `C#C[C@]1(OC(C)=O)CC[C@H]2[C@@H]3CCC4=CC(=NO)CC[C@@H]4[C@H]3CC[C@@]21CC` (mixture of isomers) [Norgestimate], the ALDHbr is 0.84.

Consider `CC(CN(C)C)C(C)(O)Cc1ccc(Cl)cc1` (stereo unspecified) [Clobutinol hydrochloride], for which the ALDHbr is 1.01.

With `CCC(=O)O[C@]1(C(=O)CCl)[C@@H](C)C[C@H]2[C@@H]3CCC4=CC(=O)C=C[C@]4(C)[C@@]3(F)[C@@H](O)C[C@@]21C` [Clobetasol propionate], the ALDHbr amounted to 0.763.

Consider `CN1CCC(=C2c3ccccc3C=Cc3ccccc32)CC1` [Cyproheptadine hydrochloride], for which the ALDHbr came to 0.693.

For the compound `C[C@@H](CN1CC(=O)NC(=O)C1)N1CC(=O)NC(=O)C1` [Dexrazoxane hydrochloride], the ALDHbr is 0.793.

For `CC1COc2c(N3CCN(C)CC3)c(F)cc3c(=O)c(C(=O)O)cn1c23` (stereo unspecified) [Ofloxacin], the ALDHbr came to 1.

On to `CC1(C)O[C@@H]2C[C@H]3[C@@H]4C[C@H](F)C5=CC(=O)CC[C@]5(C)[C@H]4[C@@H](O)C[C@]3(C)[C@]2(C(=O)CO)O1` [Flurandrenolide], for which the ALDHbr was found to be 1.04.

For the compound `CCCCNc1ccc(C(=O)OCCN(C)C)cc1`, the ALDHbr stood at 0.876.

As for `O=C(O[C@@H]1C[C@@H]2C[C@H]3C[C@H](C1)N2CC3=O)c1c[nH]c2ccccc12` [Dolasetron mesilate], the ALDHbr was found to be 0.966.
